Assay results published in PubChem BioAssay AID1030 (National Center for Advancing Translational Sciences (NCATS), 2008).
Out of some 220,000 compounds screened, about 16,000 (7.3%) were called active. Inconclusive means that the source gave no clear call. Such entries were picked first, then a sample of the others. The call rests on the fitted dose curve; in most records, active means well fitted inhibition curve with a large enough effect (not every such curve was filed as active); inconclusive means small, poorly fitted or top-dose-only effect, or another doubt; inactive means no such curve, though single readings can be large or run the other way. Potencies of inconclusive entries are doubtful fits and often do not repeat.

target: Aldehyde dehydrogenase 1A1 (Homo sapiens) (UniProt P00352); experiment: qHTS Assay for Inhibitors of Aldehyde Dehydrogenase 1 (ALDH1A1); conditions: Purified ALDH1A1, NADH fluorescence, propionaldehyde substrate; series mostly up to 75.3 µM
Potency means the concentration at half of the fitted maximal effect; tags describe the fitted curve by direction and shape.

UniProt P00352, sequence (P00352 whole entry, looked up): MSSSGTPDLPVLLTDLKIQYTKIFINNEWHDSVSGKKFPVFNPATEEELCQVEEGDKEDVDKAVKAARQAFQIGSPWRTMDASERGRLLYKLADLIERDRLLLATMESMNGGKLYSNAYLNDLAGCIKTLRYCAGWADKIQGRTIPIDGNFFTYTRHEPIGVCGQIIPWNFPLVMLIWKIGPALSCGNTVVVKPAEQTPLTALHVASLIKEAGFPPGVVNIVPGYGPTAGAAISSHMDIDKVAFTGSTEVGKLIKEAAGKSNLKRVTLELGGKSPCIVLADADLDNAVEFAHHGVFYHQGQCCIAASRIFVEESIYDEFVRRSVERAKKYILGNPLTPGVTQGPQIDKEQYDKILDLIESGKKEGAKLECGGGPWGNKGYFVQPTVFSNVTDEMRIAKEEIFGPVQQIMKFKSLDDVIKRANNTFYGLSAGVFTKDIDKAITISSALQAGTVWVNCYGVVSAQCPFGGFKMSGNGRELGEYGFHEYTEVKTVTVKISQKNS

Potency, inconclusive:
CN1C(=O)c2ccc(C(=O)NC3CCCCC3)cc2C1=O 0.178 µM [inhibitor, partial curve, poor fit]
COc1ccc(NC(=O)c2ccc(-n3cccn3)c([N+](=O)[O-])c2)cc1 39.8 µM [inhibitor, single point]
CCc1ccc(-n2c(SCc3c(C)noc3C)nnc2-c2ccncc2)cc1 14.1 µM [inhibitor, partial curve]
COc1ccc(CN2CCCC(CNC(=O)c3ccc(F)cc3)C2)cc1OC (stereo not drawn) 44.7 µM [inhibitor, single point]
O=C1CCCC2=C1C(c1ccncc1)c1c(nc(SCc3ccccc3Cl)[nH]c1=O)N2 (stereo not drawn) 31.6 µM [inhibitor, partial curve]
CC(=O)Nc1ccc2nc(CN3CCN(Cc4ccc(F)cc4)C(CCO)C3)ccc2c1 (stereo not drawn) 35.5 µM [inhibitor, single point]
O=C(c1cc2nc(-c3ccccc3)cc(-c3ccccc3)n2n1)N1CCN(C(=O)c2ccco2)CC1 12.6 µM [inhibitor, partial curve]
CC(=O)c1ccc(N2CCN(C(=O)c3cc4c(-c5ccccc5F)nn(C)c4s3)CC2)cc1 39.8 µM [inhibitor, single point]
Clc1ccccc1C1=Nn2c(nnc2-c2ccncc2)SC1 11.2 µM [inhibitor, partial curve]
CCNC(=O)Nn1c(C)nnc1C 20 µM [inhibitor, single point]
COc1ccc(CNc2ncnc3ccc(-c4ccc(N(C)C)cc4)cc23)c(OC)c1 20 µM [inhibitor, partial curve]
COCCn1cc(C(=O)N2CCN(C)CC2)c2c3ccccc3n(C)c2c1=O 25.1 µM [inhibitor, partial curve]
CC1CCCCN1C(=O)CSc1ccc(-c2ccc(F)cc2)nn1 (stereo not drawn) 44.7 µM [inhibitor, single point]
COc1ccc(-c2nc3cnc(N(C)C)nc3n(CCC#N)c2=O)cc1 3.55 µM [inhibitor, single point]
Cc1ccc(CNC(=O)C23CN(Cc4ccccc4)CC2C(c2ccc([N+](=O)[O-])cc2)=NO3)o1 (stereo not drawn) 39.8 µM [inhibitor, single point]
CCCCOC(=O)Nc1nnc(COc2ccccc2)s1 22.4 µM [inhibitor, partial curve]
Cc1cc(/C=C2\NC(=S)N(C)C2=O)ccc1N1CCCC1 20 µM [inhibitor, partial curve]
O=c1cc(-c2ccccc2)oc2cc(O[C@@H]3O[C@H](CO)[C@@H](O)[C@H](O)[C@H]3O)c(O)c(O)c12 39.8 µM [inhibitor, single point]
Cc1noc(C)c1CSCC(=O)Nc1nc2ccc(Oc3ccccc3)cc2s1 39.8 µM [inhibitor, single point]
CCc1cc(C(C)=O)c(O)cc1OCCCCCC(C)(C)c1nn[nH]n1 31.6 µM [inhibitor, single point]
CCN(CC)CC(=O)Nc1ccc(-c2nc3cc(NC(=O)CN(CC)CC)ccc3o2)cc1 14.1 µM [inhibitor, partial curve]
COc1ccc2cc3cc(C(=O)NCCN4CCc5ccccc5C4)sc3nc2c1 22.4 µM [inhibitor, partial curve]
COc1ccc(Nc2nc(NCCO)nc(OC)n2)cc1 20 µM [inhibitor, single point]
CC1(C)Cc2c(sc3ncn4c(=S)[nH]nc4c23)CO1 22.4 µM [inhibitor, single point]
CC(C)c1ccc(CN2CCC(C(=O)NCc3cccnc3)CC2)cc1 5.62 µM [inhibitor, full curve, poor fit]
Cc1nn(CCC(=O)NNC(=S)Nc2ccc(F)cc2)c(C)c1[N+](=O)[O-] 37.7 µM [inhibitor, single point]
COc1ccc(-c2cc(C(=O)Nc3cc(S(=O)(=O)N4CCOCC4)ccc3N3CCOCC3)c3ccccc3n2)cc1 39.8 µM [inhibitor, single point]
Cc1ccc2oc(-c3cccc(N)c3)nc2c1 28.2 µM [inhibitor, partial curve]
COc1ccccc1C(=O)NC(C)c1ccccc1 (stereo not drawn) 22.4 µM [inhibitor, single point]
CCC(=O)N/N=C(\C)CC(=O)Nc1ccccc1-c1ccccc1 25.1 µM [inhibitor, single point]
O=C(c1ccc2c(=O)n3c(nc2c1)CCCCC3)N1CCN(Cc2ccccc2)CC1 44.7 µM [inhibitor, single point]
Cc1ccccc1CN1CCN(Cc2ccccc2C(F)(F)F)CC1 39.8 µM [inhibitor, single point]
Cc1ccc(S(=O)(=O)c2nc(C)oc2NCc2ccccc2)cc1 28.2 µM [inhibitor, single point]
Cc1cc(-c2n[nH]c(=S)n2/N=C/c2c[nH]c3ccccc23)n[nH]1 35.5 µM [inhibitor, single point]

Potency, inactive:
COC(=O)[C@H](CCSC)NC(=O)NCCc1ccccc1F
O=C(COC(=O)c1cccc(S(=O)(=O)NCc2ccccc2)c1)c1ccccc1
Cc1ccc(S(=O)(=O)N2CCN(C3CCC(c4ccccc4)CC3)CC2)cc1 (stereo not drawn)
O=c1[nH]c(C2CC2)nc2sc3c(c12)CCCC3
COc1cccc(C=NCC(C)N=Cc2cccc(OC)c2O)c1O (stereo not drawn)
c1ccc(CNc2nc3ccccc3[nH]2)cc1
O=C(Nc1ccncc1)c1cc(-c2ccccn2)nc2ccc(Br)cc12
COc1cc2c(cc1NC(=S)NC(=O)/C=C/c1ccco1)oc1ccccc12
CCOC(=O)c1ccc(NC(=O)COc2ccc(S(=O)(=O)NC(C)(C)C)cc2)cc1
CC(=O)Nc1ccc(NC(=O)COc2c(C)cc(Br)cc2C)cc1
CC(C)(C)CC(=O)O/N=C(\N)c1ccncc1
CC1(C)CC(CC(=O)Nc2ccccn2)C(=O)O1 (stereo not drawn)
Fc1ccccc1Cc1noc(CN2CCN(c3ccc(Cl)cn3)CC2)n1
COc1cc(C(=O)Nc2cccc(-c3nncn3C)c2)cc(OC)c1OC
Cc1ccc(/C=N/NC(=O)CSc2nc3ccccc3n2C)s1
CC(=O)OCCCNc1cc(Sc2ccc(C)cc2)c2nonc2c1[N+](=O)[O-]
CCOC(=O)c1c(NC(=O)CSc2nncs2)sc(C)c1C
O=C(CSc1nnc(-c2ccc(O)cc2)o1)N1CCOCC1
O=C(Cn1ccnc1[N+](=O)[O-])NCCO
COCCn1c(C)cc(C(=O)COC(=O)c2ccccc2Br)c1C
Cn1c(N)c(C(=O)COC(=O)COc2ccc3ccccc3c2)c(=O)n(C)c1=O
CN(C(=S)Nc1ccccc1F)C1(c2ccccc2Cl)CCCCC1=O (stereo not drawn)
O=S(=O)(/N=C(/Nc1ccc(F)cc1F)c1ccccc1)c1ccc(Br)cc1
O=c1c2ccccc2c(C=Nc2ccc(S(=O)(=O)N3CCCCC3)cc2)c(O)n1-c1ccc(Cl)cn1

Potency, active:
CN1CCN(CC(=O)C23CC4CC(CC(C4)C2)C3)CC1 20 µM
O=C(CSc1cn(Cc2ccccc2)c2ccccc12)Nc1nccs1 14.1 µM
O=C(CSc1nnc2c(n1)[nH]c1ccccc12)Nc1ccc(N2CCOCC2)cc1 22.4 µM
CSc1ccc(OC2CCCCC2NS(=O)(=O)c2ccc(Cl)cc2)cc1 (stereo not drawn) 0.447 µM
O=C1NCCCN1Cc1ccc(F)cc1Cl 4.47 µM
CC(=O)Oc1ccc(N2C(=O)C3C4C=CC(O4)C3C2=O)cc1 (stereo not drawn) 0.447 µM
O=C(CN1CCC(n2nnc3cc(F)ccc32)CC1)NCc1ccco1 14.1 µM
O=C(CSc1nnc(-c2ccco2)n1Cc1ccccc1)c1ccc(F)cc1 3.98 µM
COc1ccc(-c2nn3c(C4CCCCC4)nnc3s2)cc1OC 12.6 µM
COc1cc(OC)cc(C(=O)NC(=S)NNC(=O)c2cnccn2)c1 39.8 µM
CCOC(=O)c1sc(N)c(C(=O)Nc2ccccc2)c1C 11.2 µM
CCOC(=O)C1=C(C)NC2=C(C1c1ccc([N+](=O)[O-])cc1)S(=O)(=O)c1ccccc12 (stereo not drawn) 2.51 µM
O=C(CN1CCC(NC(=O)c2ccccc2F)CC1)Nc1ccc2c(c1)OCCO2 12.6 µM
N#CCC(=O)NN=C1CCCCCCCCCCC1 3.16 µM
CC(C)n1c(=O)[nH][nH]c1=S 0.794 µM
CC(=O)Oc1ccc(N2C(=O)C3C(C2=O)C2(C)C=CC3(C)O2)cc1 (stereo not drawn) 0.631 µM
CCOc1cc(C(=S)N2CCOCC2)ccc1O 8.91 µM
O=C(CSc1nc(-c2ccccc2)nn1C(=O)c1ccccc1)Nc1cccc([N+](=O)[O-])c1 22.4 µM
COc1cccc(C2=CC(c3cc(OC)ccc3OC)n3nnnc3N2)c1 (stereo not drawn) 25.1 µM
Cc1ccc(C)c(NC(=S)NNC(=O)c2csc3c2CCC(C)C3)c1 (stereo not drawn) 10 µM
